PubChem BioAssay AID504937 (National Center for Advancing Translational Sciences (NCATS), 2011)
Out of some 340,000 compounds screened, about 20 (0.006%) were called active. The inconclusive results got no clear call from the source; some entries with a clear call stand among them for comparison. The call rests on the fitted dose curve; in most records, active means well fitted inhibition curve with a large enough effect; inconclusive means small, poorly fitted or top-dose-only effect; inactive means no such curve, though single readings can be large or run the other way. Potencies of inconclusive entries are doubtful fits and often do not repeat.
Potency means the concentration at half of the fitted maximal effect; tags describe the fitted curve by direction and shape.

These molecules were tested against Sphingomyelin phosphodiesterase (Homo sapiens) (UniProt P17405) (assay: Inhibitors of Secretory Acid Sphingomyelinase (S-ASM): qHTS). Conditions: placental ASM, HMU-PC fluorogenic substrate (series up to 57.5 µM), 60 min.
Sequence of UniProt P17405 (P17405 whole entry, looked up): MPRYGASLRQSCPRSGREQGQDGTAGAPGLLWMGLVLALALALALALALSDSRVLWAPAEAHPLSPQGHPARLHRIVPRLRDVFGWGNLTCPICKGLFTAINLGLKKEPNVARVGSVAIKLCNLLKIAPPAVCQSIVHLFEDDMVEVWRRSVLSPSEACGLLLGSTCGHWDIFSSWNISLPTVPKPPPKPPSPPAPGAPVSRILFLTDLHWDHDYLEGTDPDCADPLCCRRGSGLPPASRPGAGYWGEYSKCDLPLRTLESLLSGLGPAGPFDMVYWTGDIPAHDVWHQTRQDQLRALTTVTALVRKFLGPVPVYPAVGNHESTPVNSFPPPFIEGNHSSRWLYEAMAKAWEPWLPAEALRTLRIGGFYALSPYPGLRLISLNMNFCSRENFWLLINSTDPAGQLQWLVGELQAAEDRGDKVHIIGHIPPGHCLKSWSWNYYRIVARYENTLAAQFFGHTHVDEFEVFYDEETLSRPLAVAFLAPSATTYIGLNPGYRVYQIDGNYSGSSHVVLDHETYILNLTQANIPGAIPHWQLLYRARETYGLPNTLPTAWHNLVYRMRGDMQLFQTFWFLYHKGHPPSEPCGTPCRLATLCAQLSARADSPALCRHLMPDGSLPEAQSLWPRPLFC
Method in brief: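 qHTS format. ASM enzyme prepared from human placenta hydrolyses the fluorogenic substrate HMU-PC0 (9 uM final) over 60 min at 37 °C after a 10 min compound preincubation.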
For CC(NC(=O)c1ccc(C(=O)c2ccccc2)cc1)c1ccc(S(N)(=O)=O)cc1 (centres undefined), the Potency was “inactive”.
In the case of CCOC(=O)N1CCN(c2cc(NCCC(=O)O)c3c4c(onc24)-c2ccccc2C3=O)CC1, the Potency is reported as “inactive”.
With Cc1cccc(C(=O)NCC(=O)N2CCOCC2)c1 the Potency was “inactive”.
c1ccc(-c2ccc(C3=Nn4c(nnc4-c4cc(-c5ccccc5)n[nH]4)SC3)cc2)cc1 was tested, and the Potency was inconclusive: 141 µM [inhibitor, partial curve, poor fit].
In the case of Cc1nc(N2CCCCC2)c2c(C)c(C(=O)Nc3cccc(C(F)(F)F)c3)sc2n1, the Potency is reported as inconclusive: 447 µM [inhibitor, partial curve, poor fit].
CCc1ccc(OCCNc2cc(N3CCNC(C)C3)ccc2[N+](=O)[O-])cc1 (centres undefined) was tested, and the Potency was inconclusive: 56.2 µM [inhibitor, single point].
For Cc1cc(NC(=O)c2cc(-c3ccncc3)nc3ccccc23)ccc1Br, the Potency was inconclusive: 63.1 µM [inhibitor, partial curve, poor fit].
In the case of CN=C(Nc1cc(Cl)ccc1Cl)SC1CC(=O)N(c2ccc(C(=O)OC)cc2)C1=O (centres undefined), the Potency is reported as inconclusive: 100 µM [inhibitor, partial curve, poor fit].
For COc1cc(N(C)C)ccc1C=c1c2ccccc2n2c1cc(-c1ccccc1)[n+]2C, the Potency was inconclusive: 100 µM [inhibitor, partial curve, poor fit].
For C[C@]12c3[nH]c4cc(-c5ccco5)ccc4c3CCN1C(=O)[C@@H](CC(=O)NCC13CC4CC(CC(C4)C1)C3)C[C@@H]2C(=O)N1CCOCC1, the Potency was inconclusive: 562 µM [inhibitor, partial curve, poor fit].
For O=[N+]([O-])c1cccc(N/N=C/c2ccc(N3CCOCC3)cc2)c1, the Potency was inconclusive: 112 µM [inhibitor, partial curve, poor fit].
COc1ccc(OCC(=O)Nc2cc(-c3nn(C)c(=O)c4ccccc34)ccc2OC)cc1 was tested, and the Potency was “inactive”.
COc1ccc(NS(=O)(=O)c2ccc(NC(C)=O)cc2)c(OC)c1 was tested, and the Potency was “inactive”.
Cc1ccccc1CNC(=O)c1ccc2nc(N3CCOCC3)sc2c1 was tested, and the Potency was “inactive”.
In the case of O=C(NC(=S)N1CCc2ccccc21)c1ccc(Br)o1, the Potency is reported as “inactive”.
Cc1ccc(CNC(=O)c2cc(C3CC3)nc3c2cnn3C(C)C)cc1 was tested, and the Potency was “inactive”.
O=C(Nc1ccc(Cl)cc1)N(Cc1nc2ccccc2c(=O)[nH]1)Cc1cccs1 was tested, and the Potency was inconclusive: 89.1 µM [inhibitor, single point].
c1ccc(N(c2ccccc2)c2nc(N3CCCC3)nc(-n3ccnc3)n2)cc1 was tested, and the Potency was inconclusive: 251 µM [inhibitor, partial curve, poor fit].
With COc1ccc(N=Nc2cc(C)c(O)c(CN3CCCCC3)c2)cc1 the Potency was inconclusive: 316 µM [inhibitor, partial curve, poor fit].
C(C#CCCCCCCCCC[n+]1ccccc1)#CCCCCCCCCC[n+]1ccccc1 was tested, and the Potency was “inactive”.
In the case of CC(=O)c1ccc(N2CCC(c3cc(-c4ccc(Cl)cc4)n[nH]3)CC2)c([N+](=O)[O-])c1, the Potency is reported as inconclusive: 50.1 µM [inhibitor, partial curve, poor fit].
O=c1[nH]cnc2c1sc1nc3c(c(-c4ccc(Cl)cc4)c12)CCC3 was tested, and the Potency was inconclusive: 355 µM [inhibitor, partial curve, poor fit].
Cc1[nH]c2ccccc2c1/C=N/Nc1nc(N2CCCCC2)nc(N2CCCCC2)n1 was tested, and the Potency was inconclusive: 89.1 µM [inhibitor, single point].
For COc1ccc(C2CC(c3ccc4ccccc4c3)=NN2C(=O)COC(=O)C2CCC(=O)N2)cc1 (centres undefined), the Potency was “inactive”.
O=C(N/N=C1\CCCc2ccccc21)c1ccccc1Cl was tested, and the Potency was “inactive”.
With O=C(/C=C/NNC(=O)c1ccc(Cl)cc1)c1ccccc1 the Potency was inconclusive: 316 µM [inhibitor, partial curve, poor fit].
Oc1nc(Nc2cccc(Cl)c2)sc1/C=C1\C=Nc2ccccc21 was tested, and the Potency was “inactive”.
COc1ccc(NC(=O)c2cc(-c3cc(C)cc(C)c3O)n[nH]2)cc1Cl was tested, and the Potency was inconclusive: 79.4 µM [inhibitor, single point].
For Cc1ccc(OCc2ccc(C(=O)Nc3nccs3)o2)cc1, the Potency was inconclusive: 89.1 µM [inhibitor, partial curve, poor fit].
O=C(COc1ccccc1-c1ccccc1)N/N=C/c1cccc2ccccc12 was tested, and the Potency was inconclusive: 200 µM [inhibitor, partial curve, poor fit].
CC(=O)Oc1cc(O)c2c(=O)c(OC(C)=O)c(-c3ccc(OC(C)=O)c(OC(C)=O)c3)oc2c1 was tested, and the Potency was inconclusive: 200 µM [inhibitor, partial curve, poor fit].
In the case of COc1cc2c(-c3ccc4cc[nH]c4c3)c(-c3ccsc3)oc(=O)c2cc1OC, the Potency is reported as inconclusive: 112 µM [inhibitor, partial curve, poor fit].
In the case of O=C(Cc1csc(NC(=O)c2ccccc2)n1)NO, the Potency is reported as inconclusive: 100 µM [inhibitor, single point].
With COc1ccc(N2CC(C(=O)Nc3nc4ccc(OC)cc4s3)CC2=O)cc1 (centres undefined) the Potency was inconclusive: 63.1 µM [inhibitor, partial curve].
For CC1(C)SC(=S)N(/N=C/c2ccc(O)cc2)C1N(O)C(=O)Nc1ccc([N+](=O)[O-])cc1 (centres undefined), the Potency was inconclusive: 100 µM [inhibitor, partial curve, poor fit].
For Clc1ccc(SCc2cc(Cl)nc(-c3ccccc3)n2)cc1, the Potency was inconclusive: 562 µM [inhibitor, partial curve, poor fit].
With O=C1c2ccccc2C2=Nc3ccccc3SC(c3cccc(F)c3)C12 (centres undefined) the Potency was inconclusive: 89.1 µM [inhibitor, partial curve, poor fit].
With Cc1ccc(OCCSCc2nc3ccccc3[nH]2)cc1 the Potency was “inactive”.
In the case of COc1ccc(CC(=O)Nc2cccc(-c3nnc(-c4ccccc4)o3)c2)cc1OC, the Potency is reported as inconclusive: 447 µM [inhibitor, partial curve, poor fit].
In the case of Cc1ccc(NC(=O)CN2C(=O)S/C(=C\c3cc(Cl)c(OCC(=O)O)c(Cl)c3)C2=O)cc1, the Potency is reported as inconclusive: 89.1 µM [inhibitor, partial curve, poor fit].
For Cc1cccc(C)c1N1CCN(c2ccc3nnc(C(F)(F)F)n3n2)CC1, the Potency was inconclusive: 89.1 µM [inhibitor, single point].
Cn1c(=O)c2[nH]c(NN=Cc3cccc(Br)c3)nc2n(C)c1=O was tested, and the Potency was inconclusive: 112 µM [inhibitor, partial curve, poor fit].
O=C(CSC1=NNC(c2ccccn2)S1)Nc1ccc(C(F)(F)F)cc1 (centres undefined) was tested, and the Potency was “inactive”.
With CCCCSc1nc2ccc(Nc3nc(N4CCOCC4)nc(N4CCOCC4)n3)cc2s1 the Potency was inconclusive: 8.91 µM [inhibitor, partial curve, poor fit].
With O=C(N/N=C/c1ccccc1O)C1CC(=O)N(c2ccc(Cl)cc2)C1 (centres undefined) the Potency was “inactive”.
CS(=O)(=O)c1sc(C(=O)NC(=S)Nc2ccc(OC(F)(F)F)cc2)c2c1C=CCC2 was tested, and the Potency was inconclusive: 79.4 µM [inhibitor, single point].
For O=C(Nc1ccc(N=Nc2ccccc2)c(NC(=O)C2CCCO2)c1)C1CCCO1 (centres undefined), the Potency was inconclusive: 112 µM [inhibitor, partial curve, poor fit].
With CCOc1ccc(S(=O)(=O)NC(C)(C)C)cc1-c1nc2c(C(C)(C)C)nn(C)c2c(=O)[nH]1 the Potency was inconclusive: 89.1 µM [inhibitor, single point].
O=C(COC(=O)CCCSc1nc2ccccc2[nH]1)Nc1ccc(Oc2ccccc2)cc1 was tested, and the Potency was inconclusive: 200 µM [inhibitor, partial curve, poor fit].
For Cc1cc(C)nc(NC(=O)c2cccs2)c1, the Potency was “inactive”.
For CCOC(=O)C1=C(C)N(C[C@@H]2CC[C@@H](Cc3ccc4cc(OC)ccc4c3)O2)C(=O)NC1c1ccc(OC)cc1 (some centres undefined), the Potency was “inactive”.
For COc1ccc(OC)c(NC(=O)COC(=O)c2c3c(nc4ccccc24)CCCC3)c1, the Potency was inconclusive: 89.1 µM [inhibitor, partial curve, poor fit].
With O=S(=O)(CCN1CCCCC1)Oc1ccc(Cl)cc1Cl the Potency was “inactive”.
Cc1cccc2c1NC(=O)/C2=C\C(=O)c1cccs1 was tested, and the Potency was “inactive”.
With Cc1ccc(NC(=O)CCCc2nc3ccccc3c(=O)[nH]2)c(Cl)c1 the Potency was “inactive”.
In the case of CCOC(=O)c1ccc(NS(=O)(=O)c2ccc3c(c2)CCCN3C(C)=O)cc1, the Potency is reported as “inactive”.
For COc1cc(OC)c(OC)cc1/C=C1\CC(C)C/C(=C\c2cc(OC)c(OC)cc2OC)C1=O (centres undefined), the Potency was inconclusive: 100 µM [inhibitor, single point].
In the case of COc1ccccc1NS(=O)(=O)c1cc(N=N/C(C(=O)Nc2ccc(Cl)cc2)=C(/C)O)ccc1C, the Potency is reported as inconclusive: 355 µM [inhibitor, partial curve, poor fit].
For c1ccc2c(c1)OCC(c1nn3c(Cn4nnc5ccccc54)nnc3s1)O2 (centres undefined), the Potency was inconclusive: 56.2 µM [inhibitor, partial curve].
c1ccc(N2CCN(Cc3ccnc4ccccc34)CC2)cc1 was tested, and the Potency was “inactive”.
With O=C(O)CCCC(=O)Nc1nc(-c2ccc(F)cc2)cs1 the Potency was “inactive”.
In the case of C[C@@H]1CN([C@@H](C)CO)C(=O)c2cc(NC(=O)Nc3ccc(F)cc3)ccc2O[C@@H]1CN(C)Cc1ccc(Oc2ccccc2)cc1, the Potency is reported as inconclusive: 89.1 µM [inhibitor, partial curve].
With O=C1/C(=C/c2cccs2)N=C(c2cccs2)N1Nc1ccccc1 the Potency was inconclusive: 70.8 µM [inhibitor, partial curve, poor fit].
For Cc1csc(NC(=O)CSc2nsc(SCC(=O)Nc3nc(C)cs3)c2C#N)n1, the Potency was inconclusive: 112 µM [inhibitor, partial curve, poor fit].
